PubChem BioAssay AID488969 (Vanderbilt High Throughput Screening Facility, 2010)
Whole data set: some 110,000 compounds, median “z-score” near -0.1, cut for the highest 2% near 2. Some of the results follow.

Each molecule was assayed against Metabotropic glutamate receptor 8 (Rattus norvegicus) (UniProt P70579) (assay: rat mGluR8 modulators via GIRK flux, primary screen, cell-based, thallium flux, HTS (AID 488969)). Details: HEK293 rat mGluR8, GIRK (G protein-gated inwardly rectifying potassium channel) thallium flux, FluoZin2; at 10 µM; stronger effect = higher value; submaximal glutamate (EC20) added with thallium.
UniProt P70579, sequence (P70579 whole entry, looked up): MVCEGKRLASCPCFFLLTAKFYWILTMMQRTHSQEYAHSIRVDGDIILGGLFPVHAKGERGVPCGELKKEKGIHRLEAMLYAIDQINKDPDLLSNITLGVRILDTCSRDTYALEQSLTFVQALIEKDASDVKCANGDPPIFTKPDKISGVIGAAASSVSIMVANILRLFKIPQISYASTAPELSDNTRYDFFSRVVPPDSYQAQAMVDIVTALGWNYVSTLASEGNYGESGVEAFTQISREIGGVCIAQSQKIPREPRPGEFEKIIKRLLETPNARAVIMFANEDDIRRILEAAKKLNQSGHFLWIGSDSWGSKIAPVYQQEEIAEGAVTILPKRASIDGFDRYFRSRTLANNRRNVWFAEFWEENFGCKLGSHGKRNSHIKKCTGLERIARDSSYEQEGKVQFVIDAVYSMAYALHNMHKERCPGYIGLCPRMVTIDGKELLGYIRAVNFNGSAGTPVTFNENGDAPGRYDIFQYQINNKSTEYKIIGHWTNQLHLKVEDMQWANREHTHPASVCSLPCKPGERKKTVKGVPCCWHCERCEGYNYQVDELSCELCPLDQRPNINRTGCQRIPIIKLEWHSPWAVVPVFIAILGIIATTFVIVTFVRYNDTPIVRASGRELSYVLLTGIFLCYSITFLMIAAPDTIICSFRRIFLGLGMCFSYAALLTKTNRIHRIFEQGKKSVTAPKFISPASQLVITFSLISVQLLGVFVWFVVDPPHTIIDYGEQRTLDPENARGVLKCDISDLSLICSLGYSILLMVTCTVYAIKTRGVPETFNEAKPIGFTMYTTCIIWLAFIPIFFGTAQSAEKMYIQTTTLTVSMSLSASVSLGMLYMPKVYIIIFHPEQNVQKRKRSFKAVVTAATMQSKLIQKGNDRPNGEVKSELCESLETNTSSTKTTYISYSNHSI

| Structure (SMILES) | z-score |
| --- | --- |
| CCOc1cccc(OCCCOc2ccccc2)c1 | -0.0974 |
| Cc1ccc(OCCNS(=O)(=O)c2cccs2)cc1 | 0.0923 |
| CCN(CC)C(=O)CSc1ncnc2c1nnn2-c1ccc(F)cc1 | -0.376 |
| Cc1ccc(OCC(=O)N2N=C(c3cccnc3)CC2(O)C(F)(F)F)cc1C (configuration not stated) | -0.105 |
| Cc1nonc1OCC(C)(COc1nonc1C)NC(=O)c1ccc(Cl)cc1 | -0.0555 |
| CCC(CC)C(=O)c1c[nH]c(C(=O)NCCc2ccccn2)c1 | 0.0635 |
| Cc1ccccc1CNC(=O)c1ccccc1 | -0.329 |
| Cc1ccc(-n2nc(C)c3c2OC(N)=C(C#N)C3c2ccncc2)cc1 (configuration not stated) | -0.498 |
| O=C(c1cc(NC(=O)C23CC4CC(CC(C4)C2)C3)cc(NC(=O)C23CC4CC(CC(C4)C2)C3)c1)N1CCCCC1 | -1.34 |
| CCC(=O)NC(=S)Nc1ccc(NC(=O)COc2ccc(Cl)c(C)c2)cc1 | -0.0852 |
| C/C=C(\C)c1nnc(NC(=O)C(C)C)s1 | 0.0139 |
| CCC(C)[C@H](NC(=O)Nc1ccc(C(C)=O)cc1)C(=O)OC (some centres not stated) | 0.195 |
| COC(=O)c1c(C)[nH]c(C(=O)/C=C/c2ccccc2)c1C | -0.0133 |
| O=C(Cc1n[nH]c(=O)c2ccccc12)Nc1ccc(-c2nnc3n2CCCCC3)cc1 | -0.134 |
| O=C(COc1cc(Cl)c(Cl)cc1Cl)Nn1cnnc1 | 0.298 |
| Cc1ccc(C)c(NC(=S)NC2CC3CCCC(C2)N3CC(C)C)c1 (configuration not stated) | -0.965 |
| Cc1ccc(S(=O)(=O)N2CCCC2C(=O)Nc2cc(C)on2)cc1 (configuration not stated) | 0.4 |
| Cc1nc([N+](=O)[O-])nn1C12CC3CC(CC(Cl)(C3)C1)C2 | -0.00977 |
| N#Cc1c2n(c3c(=O)n(CC(=O)c4ccc(Br)cc4)cnc13)CCCC2 | -0.601 |
| CCCCNC(=O)c1ccccc1NC(=O)c1ccccc1N(C)S(C)(=O)=O | 0.2 |
| CCOC(=O)c1c(NC(=O)CSc2nnc(Cc3ccccc3)o2)sc(C)c1C | -0.364 |
| CN1C(=O)SC(Nc2cccc3ccccc23)C1=O (configuration not stated) | -0.0592 |
| O=C(NCC(c1cccs1)N1CCOCC1)c1ccc(Cl)c([N+](=O)[O-])c1 (configuration not stated) | -0.269 |

| Structure (SMILES) | z-score |
| --- | --- |
| COCCN(C(=O)C(C)C)c1nnc(-c2ccc(C)cc2)s1 | -0.134 |
| Cc1cccc(NC(=O)CSc2nc3[nH]ncc3c(=O)[nH]2)c1C | -0.205 |
| COc1ccc(CC(=O)N2CCNC2=O)cc1 | -0.761 |
| CCOC(=O)c1cn(-c2ccc([N+](=O)[O-])cc2)c2cc(Cl)c([N+](=O)[O-])cc2c1=O | -0.289 |
| Cc1ccc(SCc2noc(C(=O)NC(C)C)c2C(=O)O)cc1C | -0.218 |
| Cc1ccc(/C=C/C(=O)N2CCN(S(=O)(=O)c3ccc(C)c(C)c3)CC2)o1 | 0.583 |
| CC1CCCN(CC(O)COc2ccc(Cl)cc2)C1 (configuration not stated) | 0.149 |
| COc1ccccc1N1CCN(CC(O)COc2c(OC)cccc2OC)CC1 (configuration not stated) | 0.862 |
| Cc1cc(Nc2ccccc2)c2c([N+](=O)[O-])c(C)cc(C)c2n1 | 0.0133 |
| COc1ccc(C)cc1-n1nnnc1SCc1cn2ccsc2n1 | -0.447 |
| CCOc1cc(C(=O)Nc2ccc([N+](=O)[O-])cn2)cc(OCC)c1OCC | -0.113 |
| O=C(CN1C(=O)NC2(CCCc3ccccc32)C1=O)N1CCN(C(=O)c2ccco2)CC1 (configuration not stated) | -0.336 |
| FC(F)(F)c1cccc(Oc2nc(-c3ccccc3)nnc2C(F)(F)F)c1 | -0.0104 |
| Cc1cc(C)cc(N=C2NC(=O)/C(=C/c3cccs3)S2)c1 | 0.141 |
| O=[N+]([O-])c1cccc(C2=NCCS2)c1 | -0.057 |
| CCOC(=O)c1nnn(-c2nonc2NC(C)=O)c1C | 0.102 |
| COc1ccccc1N1CCN(CCC(=O)Nc2ccc3c(c2)OCO3)CC1 | -0.0155 |
| O=C(Nc1cccc(S(=O)(=O)N2CCOCC2)c1)c1cn(-c2ccccc2)nc1-c1ccc(F)cc1 | -0.681 |
| CCOc1ccc(CCNC(=O)CSc2cc(=O)n(C)c3cc(Cl)ccc23)cc1OCC | -0.423 |
| COc1ccc(NC(=O)CCN2CCN(S(=O)(=O)c3ccc(Cl)cc3)CC2)cc1 | -0.0748 |
| CN1CCN(Cn2cc(/C=C/C(=O)c3ccccc3)c3ccccc32)CC1 | -0.0549 |
| CCOC(=O)C(C(=O)OCC)C(Nc1ccccc1)c1ccccc1 (configuration not stated) | -0.332 |
| CC(=O)c1c(C)[nH]c(C(=O)OCC(=O)Nc2sc3c(c2C#N)CCCC3)c1C | -0.0673 |

| Structure (SMILES) | z-score |
| --- | --- |
| O=S(=O)(c1ccc(Nc2ccc3c(c2)OCO3)nc1)N1CCOCC1 | 2.28 |
| Cc1cc(=O)oc2c3c4c(cc12)OCCN4CCC3 | -0.597 |
| O=C(CN1C(=O)CSCC1=O)NCc1ccc(F)cc1 | 0.198 |
| Cc1ccc(S(=O)(=O)Nc2ccc3c(c2)nc(CN2CCCC2)n3C)cc1 | -0.235 |
| COc1cccc(C(c2nnnn2C(C)(C)C)N2CCN(C3CCCCC3)CC2)c1OC (configuration not stated) | 0.0316 |
| Cc1ccc2[nH]c3c(c2c1)CN(C(=O)CN(C)CC1OCCO1)CC3 | -0.00997 |
| COc1ccccc1NC1=C(C)C(=O)CC1 | -0.466 |
| COCCN1Cc2cccc(C(=O)Nc3cccnc3)c2C1=O | 0.234 |
| C=CCc1c(C)nc(C)nc1N/N=C/c1ccc(F)cc1 | -0.164 |
| O=S(=O)(/N=C(/c1ccc(F)cc1)N1CCCCC1)c1ccc(Cl)cc1 | -0.662 |
| COc1ccc(CNCCC(c2ccccc2)c2ccc3c(c2)OCO3)cc1 (configuration not stated) | 2.28 |
| Cn1c(/C=C/c2ccc([N+](=O)[O-])o2)nc2ccccc2c1=O | -0.214 |
| Cc1cccc(Nc2cc(=O)[nH]c(=O)[nH]2)c1C | -0.0172 |
| O=C(NC1CCN(C(=S)NCc2ccco2)CC1)NC12CC3CC(CC(C3)C1)C2 | -0.117 |
| O=c1c2ccccc2c(/C=N/n2cnnc2)c(O)n1-c1ccccc1 | -0.633 |
| COc1cc(C2C(C#N)=C(N)OC3=C2C(=O)CCC3)cc(OC)c1OC(=O)N1CCOCC1 (configuration not stated) | 0.128 |
| Cn1c(/C(C#N)=N/O)nc2ccccc21 | -0.159 |
| Cn1c2ccccc2c(=O)c2c(=O)n(C3CCCCCC3)c(C3CCCCC3)nc21 | -0.175 |
| COc1ccccc1-c1c(C)nn2c(N3CCCCCC3)cc(C)nc12 | -0.698 |
| COc1ccc(-n2c(C)cc(C=O)c2C)cc1Cl | -0.544 |
| COc1ccc(OCCSc2ncnc3nc[nH]c23)cc1 | 0.421 |
| COC(=O)CN(C(=S)Nc1ccc(F)cc1)C1CC(=O)N(c2ccc(OC)cc2)C1=O (configuration not stated) | -0.133 |
| Cc1cc(C)nc(SC2CCCCC2O)n1 (configuration not stated) | 0.972 |

| Structure (SMILES) | z-score |
| --- | --- |
| CCCCN(CC)C(=O)c1cc2cc3ccc(OC)cc3nc2o1 | -0.853 |
| O=[N+]([O-])c1ccc(CN2CCOCCOCCOCC2)cc1 | -0.132 |
| CC(=O)Nc1nc2c(F)cccc2s1 | 0.033 |
| CC(C)Oc1ccc(CNC(=O)CC(c2ccccc2)c2cc(Cl)ccc2O)cc1 (configuration not stated) | 0.0536 |
| Cc1nn(-c2ccccc2)c(N)c1C(O)(CSc1nccn1C)C(F)(F)F (configuration not stated) | -0.135 |
| Cc1cccc(NC(=O)c2cc(-c3ccco3)nc3ccccc23)n1 | -0.158 |
| CCN1CCN(C(C(=O)NC2CCCCC2)c2ccc(Cl)cc2)CC1 (configuration not stated) | 0.3 |
| CCC(C)C(=O)Nc1nc2c(s1)C(=O)CC(C)(C)C2 (configuration not stated) | 0.167 |
| CC1CCN(CCCCOc2ccccc2[N+](=O)[O-])CC1 | 0.0186 |
| CCCCCCCCC(=O)N/N=C/c1ccccn1 | 1.06 |
| NC(=O)c1ccccc1NC(=O)c1ccccc1S(=O)(=O)c1ccccc1[N+](=O)[O-] | -0.297 |
| COC(=O)c1cc(OC)c(OC)cc1NC(=O)CN1CCOCC1 | 0.174 |
| CCOC(=O)c1c(NC(=O)C2COc3ccccc3O2)sc2c1CC(C)(C)NC2(C)C (configuration not stated) | 1.29 |
| CC(C)C1OC2c3cccc4cccc(c34)C2N1c1ccccc1 (configuration not stated) | -0.0175 |
| Cn1cccc1CC(=O)NNC(=S)Nc1ccc(F)cc1 | -0.244 |
| CC(C)CNc1nc(=S)nc(N(C)C)[nH]1 | -0.092 |
| CC1(C)CC(=O)CC(C)(C)N1OC(=O)c1ccco1 | 0.00851 |
| O=C(NCc1ccc(F)cc1)c1c2c(nc3ccccc13)CCN(Cc1ccccc1)C2 | -0.183 |
| CC12CN3CC(C)(CN(C1)C3c1ccc3ccccc3c1O)C2=O (configuration not stated) | 0.664 |
| COc1ccccc1OCC(=O)Nc1ccccc1C(=O)NCc1ccco1 | 0.161 |
| CC(C)CNC(=O)c1ccc(NC(=O)c2ccccc2[N+](=O)[O-])cc1 | -0.341 |
| COc1cccc(NC(=O)Cc2ccc(C)cc2)c1 | 0.445 |
| O=C(Nc1ccccc1)C1CC(=O)N(c2ccc3c4c(cccc24)CC3)C1 (configuration not stated) | -0.104 |

| Structure (SMILES) | z-score |
| --- | --- |
| COC(=O)C(C(=O)OC)C(C[N+](=O)[O-])c1ccc(OC)cc1 (configuration not stated) | -0.212 |
| CCCC/C(C)=N/NC(=O)Nc1ccccc1 | -0.105 |
| C=CCNC(=O)c1nn2cccnc2c1Cl | -0.068 |
| O=C1C2C3C=CC(C3)C2C(=O)N1c1n[nH]c(-c2cccnc2)n1 (configuration not stated) | -0.0444 |
| Cc1cc(O)c(/C=N/Nc2cccc(Cl)c2)c(=O)o1 | -0.0467 |
| O=C(NCc1cccnc1)/C(=C\c1ccc(-c2cccc(Cl)c2)o1)S(=O)(=O)c1ccccc1 | -0.109 |
| CCCC1C(c2ccco2)NC(c2ccco2)CC1(C)O (configuration not stated) | 0.739 |
| Cn1ncc(Cl)c1C(=O)Nc1ccncc1 | 0.243 |
| CCOC(=O)/C(C#N)=C1\Nc2ccccc2N=C1N(CC(C)C)CC(C)C | -1.44 |
| CC(=O)N(CCCCN1C(=O)c2ccccc2C1=O)c1ccc(C)cc1 | -0.0897 |
| CCOC(=O)CC(=O)Nc1nc2ccccc2s1 | -0.0103 |
| O=C(Nc1ccccc1N1CCN(c2ccc(F)cc2)CC1)C12CC3CC(CC(C3)C1)C2 | -1.97 |
| CCCc1nnc(SCC(=O)N2C(C)CCCC2C)n1CCCOC (configuration not stated) | -0.354 |
| CC1CCCN(C(=O)c2sc3cc([N+](=O)[O-])ccc3c2Cl)C1 (configuration not stated) | -0.382 |
| C(=N\N1CCN(C2c3ccccc3-c3ccccc32)CC1)/c1cccs1 | -0.185 |
| CCOc1ccc2[nH]c(=O)c(C(c3nnnn3C3CCCCC3)N3CCN(CC)CC3)cc2c1 (configuration not stated) | 0.408 |
| CCOC(=O)c1nnc(-c2ccccc2)nc1NC | -0.246 |
| COc1ccc(C(=O)COC(=O)c2ccco2)cc1 | 0.472 |
| COc1ccc(OC)c(S(=O)(=O)N2c3ccccc3CC2C)c1 (configuration not stated) | -0.681 |
| Cc1ccc(NC(=O)c2ccc3nc[nH]c3c2)cc1C | 0.551 |
